# Experimental data published in the supplement of paper PMC11417369.
# This is one part of the list.
# Test system: PfSIP2 AP2 domain 1 (GST-tagged)
# Assay: gcPBM binding intensity (ln(normalized median fluorescence intensity)); higher = stronger DNA binding
# How it was run: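 Probes on an Agilent 4 × 180k array were primer-extended, double-stranded and 36 bp long, taken from intergenic genomic regions, with negative controls added. GST-tagged P. falciparum DNA-binding domains from E. coli, about 25 μg on average, were applied to the array for 1 h in 1× PBS containing 1% milk, 0.2 mg/ml BSA, 0.5% salmon testes DNA and 0.03% Triton X-100. Binding intensity, obtained after Alexa488 anti-GST antibody detection and a 488 nm scan, is the highest Masliner-normalised natural-log median intensity across replicate spots of either probe orientation.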
row,Sequence,gcPBM binding intensity (ln)
1,TTTAATTTGTTATACACACACAAAAAAAATTATAAA [CACACA_site3937],7.16
2,GACACTTTGAAGGGTACATGCAGAAAAAAAAAAAAA [TGCATGCA_site89],7.18
3,TTTTATTTATCTAATTGTACTCATTCTTTTTTGATG [XGTACX_site2876],6.88
4,GCTAAAAGTATATGCACACACATATAGATGCACATA [CACACA_site6868],9.07
5,AATGTGCCCACGCGTACACACAAAAAAAGAAAAAAA [CACACA_site2003],7.12
6,TTTTAAAAAAAAAAAAAAAAAATTAAAATAATTCAA [TGCATGCA_negctrl_site69],6.33
7,ATAAAATAATTAATGGGTACATAATTAAATAAAGAG [XGTACX_site3309],7.51
8,CATACATAGAAACACACACACACACCCACCCACAAA [CACACA_site494],7.11
9,GGATAAGATGTATATACACACAATTTAAAAAAATAA [CACACA_site910],7.08
10,AATACAATTTTTAACACACACACAATAATACAGATA [CACACA_site4823],7.17
11,GTGTAATTTATTGTGTTGCACTTTTTTTTTTTTTTT [GTGCAC_site9644],9.35
12,AAGATAGACTCATATGCATGCATTCACATACCAACA [TGCATGCA_site179],7.19
13,TTAATATAGGAATATGCACACATATATACATACATA [CACACA_site8432],7.25
14,TATATCATAAAAAATTGTACATATATATATTATATA [XGTACX_site6726],7.2
15,TGATGGGACATAAATATTGAGATGATCATAAGATAA [TGCATGCA_negctrl_site276],6.88
16,AAAGATAATATATGCACACATATAAATATATAAATA [CACACA_site3477],7.33
17,AAAAAAAAAAAAAGTACACACTTTTGCGTACAAGTA [CACACA_site5672],7.5
18,TATTTATTATATAAATGTACATAATATATGTATGTC [XGTACX_site2815],7.1
19,AAGAAAAAAAAAAAAAAAAAAAAAAAAAATTTATGA [TGCATGCA_negctrl_site294],6.77
20,CAGTTATTTTAATGTGGTACACAATTTTAAAATTAT [XGTACX_site8571],7.17
21,TGAAATGATATATAAACACACATATATAAATATGTA [CACACA_site7616],6.76
22,AAATATAATTTGCGATGTACACATATATATTTATTT [XGTACX_site1568],6.76
23,ATATAAAATGAACATAGTACTTTTTATATATTTTAA [XGTACX_site7461],6.77

row,Sequence,gcPBM binding intensity (ln)
1,TACCTATACCTATACACACACACACGGAAATAAATA [CACACA_site6750],7.56
2,AATTTTATAAAAAGTAGTACATATCAAACACCTTGA [XGTACX_site2297],7.13
3,TGACTTTTTTTTTTTTTTTTTTTTTTTTATCTTTTT [CACACA_negctrl_site481],6.81
4,TTATGATTATAACGTTTTGACATTAGGCATATATAT [CACACA_negctrl_site1396],7.2
5,TATATACCACATTGTTGTACGACACATTTACATTTT [XGTACX_site8370],7.26
6,ACTGTCGTTTTAAAGAGTACATAAAATATTAAATTA [XGTACX_site3589],7.25
7,ATGTCTTTGAAAAAAAGTACTTAAAATTATAAAAAT [XGTACX_site147],7.2
8,TTCTTTTAAAGGTATACATGCGCATGGATTTTTCAT [TGCATGCA_site223],7.02
9,TCAAAGCACAGATACACACACATATATATATATATA [CACACA_site287],9.16
10,AATTAAAAAATTATCACACATATATATATATATATA [CACACA_site5789],9.53
11,AAAACTATTAATGCAAAAAATAAAATATAATAATAA [XGTACX_negctrl_site524],6.77
12,ATTCTGAATGTTATGCGTACATATTAATCCTATTTA [XGTACX_site1216],6.97
13,TGTAATAATTATTGCACGCACACAAAAACCTATAGA [CACACA_site2932],7.61
14,TAAGGTTCATTAAAGTGTACACATAAATACCGTAAC [XGTACX_site8212],7.3
15,AAGTAAATATAATAAGGTACACATAAATAAATAAAT [XGTACX_site1740],7.06
16,GGAAACACGATATATACACACATATTTATATTTATA [CACACA_site6250],7.07
17,TCCAAATAAATATATTGTACAGAATTATTGATACCT [XGTACX_site327],6.7
18,ATGTTGTTATAAAGAGTGCAACGTATATGTATCCTT [GTGCAC_site9935],9.15
19,AGAAAAGGAAAATAAACATGCAAAAATAATATTAAA [TGCATGCA_site337],6.87
20,TAAACATTGTAAAGGAGTACAAAATTTTTTTTATGA [XGTACX_site7757],6.78
21,AATAATAAAAAATACACACACATATATATATATTAC [CACACA_site3464],7.12
22,TCTTACAAAAAACAAACAGAGAAAAATATAAGGAAA [XGTACX_negctrl_site520],6.88
23,CATACACAAGAAAATTCACACACACCCATATATATA [CACACA_site9288],7.73

row,Sequence,gcPBM binding intensity (ln)
1,AACATACAGAAACACACACACACACCCACACCCACA [CACACA_site493],7.07
2,TTTTTTTTTTTGTATCGTACATTTATAATGTTTATA [XGTACX_site6804],6.88
3,TTTTTTTCATATAACACACACACAAAAATAATGTGG [CACACA_site3688],7.01
4,AAGTTAACAATATGAAGTACAAATGAAAAAAAAAAA [XGTACX_site666],7.09
5,ATATATATATATCATAGTACACATATGTGTCTCGTG [XGTACX_site774],7.87
6,TTGTTATAGAAGCATTCACACACACCCATACATACA [CACACA_site8414],7.29
7,ATATATATTTATTTATGTACGAATAAATTTACGAAT [XGTACX_site5190],7.09
8,TTAATAGGTCGAAGTAGTACATAAAAATATATATAT [XGTACX_site5960],8.1
9,AATATCATTATATAAGTGCATTTTTTAAAAGATAAA [GTGCAC_site9479],9.12
10,AAATTAAAAAGAGCTTGTACAGATGTATACATAATA [XGTACX_site3882],6.86
11,TTTATAATTCTTACAACACACAATGTACATTTATAT [CACACA_site1261],7.06
12,TATATGAAGCTATAGACACACATATAAAAATAGAAT [CACACA_site1313],7.18
13,AATTTATATGTTTTGTGTACACAATTTATTAAATTA [XGTACX_site6448],7.36
14,TACATACAGATATATACACACATATAAAATATAGAT [CACACA_site6319],6.81
15,ATTATATATAAATATACACACATATATAAAATACAT [CACACA_site5298],7.02
16,AAGAGAAAAATATGGTTGCACTAAAAATATATATTT,7.64
17,TAAAAAATTAATAAAGTGCATAAATATTACAATATT,8.14
18,TTTTCTAAATATTATAGTACTCTTAATAATATTAAC [XGTACX_site4222],6.93
19,TTAACAAAATATAGCACACATAAATATATATTTATG [CACACA_site351],7.17
20,ATTCATATATTTATTGCATGCAAAGTAAAATAAATA [TGCATGCA_site307],6.97
21,GACATATTAGAAGGGTGTACATACTTTTAATCATTT [XGTACX_site1698],7.08
22,AATATTAAAATATAAACACACAAAATTCAATTATAT [CACACA_site5971],6.96
23,TACATATATATATGTATATATATATATATATAAATA [XGTACX_negctrl_site351],7.38

row,Sequence,gcPBM binding intensity (ln)
1,AAATGTGCATTATGTTGTACAGTCGAAATTTTTTTT [XGTACX_site3812],7.28
2,ACATAACTGATATATACACACAATACAAATATAGAT [CACACA_site7328],7.07
3,ATGAATAAATGAACATGTACATATATATATATATTA [XGTACX_site5005],7.37
4,TAATATTTTTATTATTAGAATTGTATATGTTTAATA [CACACA_negctrl_site1833],6.77
5,CATATATCATAAATATGTACGAAATAAAAGAATCAT [XGTACX_site942],7.07
6,ATAAAAGGAATATTTGCATGTGGTAGTACATAACAT [TGCATGCA_site978],7.71
7,TTTTCTTACTATTGTAGTACAATATTATATTCTTTT [XGTACX_site1925],7.15
8,TATAAATATGTATATACACACTTTTAATATTCATAA [CACACA_site7856],6.92
9,TGCGTATTCTTATTAGGTACACATATTCGTGATAAT [XGTACX_site5681],6.99
10,GATTTATATATATAAAATAATTGAATATTTTCTTTT [CACACA_negctrl_site801],6.77
11,TAATTTGAAAAATTGTGTACTCATAAAATAAATAAA [XGTACX_site2138],7.54
12,ATAAAAAAATAAAACACACACATATAGATTATAGAT [CACACA_site7343],7
13,ATAGATGATATACGTAAACACACAAATAAAAAAAAT [CACACA_site9095],7.15
14,TTTATTTTTCATAATTGTACAAAAATAAATGGAAAC [XGTACX_site5144],7.5
15,TACAAATATAGACACACACACATATATATATATATA [CACACA_site585],9.72
16,TATTATATATTAAATGCATGTAAAAATAATATTAAA [TGCATGCA_site643],7.02
17,ATATTATAATAAATGTGTACATATTGTAGAAATATT [XGTACX_site8101],6.97
18,AATTATTTACCCTATACACACAAAACACGCTAAAAA [CACACA_site1211],7.24
19,ATTTTGTGCGCACACACATGCAAAAAGAAATATGAT [TGCATGCA_site261],8.77
20,AAAGAGAGTATCTAATGTACGTATGTATGTATATAT [XGTACX_site1780],7.4
